The other results are listed elsewhere or left out. Many values rest on one well or one pass, so single values are uncertain.
Legend:
Experiment in all cases: cell count relative to DMSO control; melanoma cells; higher = more viable cells
Details in all cases: library dose: low library concentration; 72 h
[1] = test system: MZ2-MEL
[2] = test system: MeWo
[3] = test system: RPMI7951
[4] = test system: RVH-421
[5] = test system: SkMel28
[6] = test system: SkMel30
[7] = test system: SkMel5
[8] = test system: UACC257
[9] = test system: UACC62
[10] = test system: WM115
[11] = test system: WM1716
[12] = test system: WM1745
[13] = test system: WM3526
[14] = test system: WM3619
[15] = test system: WM451Lu
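Note: cell number obtained by counting DAPI-stained nuclei in high-throughput microscope images with image analysis software, screen run in 1,536-well plates.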

| Structure (SMILES) | cell count [1] [%] | cell count [2] [%] | cell count [3] [%] | cell count [4] [%] | cell count [5] [%] | cell count [6] [%] | cell count [7] [%] | cell count [8] [%] | cell count [9] [%] | cell count [10] [%] | cell count [11] [%] | cell count [12] [%] | cell count [13] [%] | cell count [14] [%] | cell count [15] [%] |
| --- | --- | --- | --- | --- | --- | --- | --- | --- | --- | --- | --- | --- | --- | --- | --- |
| C#Cc1cccc(Nc2ncnc3cc(OCCOC)c(OCCOC)cc23)c1 [erlotinib] + O=C(Oc1ccc([N+](=O)[O-])cc1)N1CCC(C(O)(c2ccc3c(c2)OCO3)c2ccc3c(c2)OCO3)CC1 [JZL184] (first compound 0.8 µM, partner dose 1 µM) | 93.7 | 98.7 | 96.6 | 95.7 | 89.1 | 76.5 | 98.9 | 69.6 | 77 | 99.2 | 102 | 84.2 | 86.5 | 88 | 103 |
| Cn1c(Nc2ccc(C(F)(F)F)cc2)nc2cc(Oc3ccnc(-c4ncc(C(F)(F)F)[nH]4)c3)ccc21 + C/C(O)=C(\C#N)C(=O)Nc1cc(Br)ccc1Br [LFM-A13] (first compound 0.08 µM, partner dose 2 µM) | 70.1 | 71.4 | 60.1 | 66 | 43.2 | 59.2 | 75.6 | 33.6 | 38.7 | 58.6 | 68.4 | 60 | 59.5 | 52.8 | 101 |
| O=C(CCCCCCC(=O)Nc1ccccc1)NO [vorinostat] + O=C(Oc1ccc([N+](=O)[O-])cc1)N1CCC(C(O)(c2ccc3c(c2)OCO3)c2ccc3c(c2)OCO3)CC1 [JZL184] (first compound 0.08 µM, partner dose 1 µM) | – | 94.7 | 104 | 103 | 77.3 | 104 | 84.4 | 91.5 | 72.4 | 98.3 | 101 | 95.2 | 80.7 | 111 | 96.5 |
| CO[C@H]1C[C@@H]2CC[C@@H](C)[C@@](O)(O2)C(=O)C(=O)N2CCCC[C@H]2C(=O)O[C@H]([C@H](C)C[C@@H]2CC[C@@H](OCCO)[C@H](OC)C2)CC(=O)[C@H](C)/C=C(\C)[C@@H](O)[C@@H](OC)C(=O)[C@H](C)C[C@H](C)/C=C/C=C/C=C/1C [everolimus] + C[As](C)SC[C@H](NC(=O)CC[C@H](N)C(=O)O)C(=O)NCC(=O)O [Darinaparsin] (first compound 0.02 µM, partner dose 0.4 µM) | 81.2 | 58.1 | 78.2 | 70.9 | 62.8 | 58.1 | – | – | 53.1 | 79.4 | 67.6 | 81.7 | 66.9 | 67.9 | 71.5 |
| O=C(CCCCCCC(=O)Nc1ccccc1)NO [vorinostat] + C/C(O)=C(\C#N)C(=O)Nc1cc(Br)ccc1Br [LFM-A13] (first compound 0.08 µM, partner dose 2 µM) | 94 | 93.6 | 102 | 108 | 85.5 | 102 | 95.3 | 98.3 | 75.5 | 97.7 | 109 | 99.3 | 100 | 81.9 | 95.2 |
| C=CCn1c(=O)c2cnc(Nc3ccc(N4CCN(C)CC4)cc3)nc2n1-c1cccc(C(C)(C)O)n1 + C/C(O)=C(\C#N)C(=O)Nc1cc(Br)ccc1Br [LFM-A13] (first compound 0.02 µM, partner dose 2 µM) | – | 96.7 | 81.3 | 99.2 | 91.8 | 80.8 | 92.4 | 72.1 | 76.4 | 84 | 75 | 79.4 | 89.5 | 67.6 | 103 |
| Cc1cc(Nc2cc(N3CCN(C)CC3)nc(Sc3ccc(NC(=O)C4CC4)cc3)n2)n[nH]1 [Tozasertib] + C[C@]12O[C@H](C[C@]1(O)CO)n1c3ccccc3c3c4c(c5c6ccccc6n2c5c31)CNC4=O [Lestaurtinib] (first compound 0.006 µM, partner dose 0.004 µM) | 103 | 80.2 | 106 | 108 | 78.5 | 82.2 | – | – | 82.2 | 83.8 | 103 | 85 | 73.5 | 128 | 105 |
| Cc1cc(Nc2cc(N3CCN(C)CC3)nc(Sc3ccc(NC(=O)C4CC4)cc3)n2)n[nH]1 [Tozasertib] + Cc1cc(SCc2sc(-c3ccc(C(F)(F)F)c(F)c3)nc2C)ccc1OCC(=O)O [GW0742] (first compound 0.006 µM, partner dose 2 µM) | – | 94.7 | 105 | 108 | 73.8 | 88.6 | 103 | 90.2 | 83.6 | 88.7 | 92.7 | 75.1 | 93.4 | 78.9 | 117 |
| Cc1nc(Nc2ncc(C(=O)Nc3c(C)cccc3Cl)s2)cc(N2CCN(CCO)CC2)n1 [dasatanib] + O=C(Oc1ccc([N+](=O)[O-])cc1)N1CCC(C(O)(c2ccc3c(c2)OCO3)c2ccc3c(c2)OCO3)CC1 [JZL184] (first compound 0.004 µM, partner dose 1 µM) | – | 85.9 | 76.9 | 92.2 | 79.8 | 92.1 | 85.9 | 70.8 | 78.6 | 75.1 | 75.3 | 61.7 | 78.7 | 86.3 | 69.4 |
| CO[C@H]1C[C@@H]2CC[C@@H](C)[C@@](O)(O2)C(=O)C(=O)N2CCCC[C@H]2C(=O)O[C@H]([C@H](C)C[C@@H]2CC[C@@H](OCCO)[C@H](OC)C2)CC(=O)[C@H](C)/C=C(\C)[C@@H](O)[C@@H](OC)C(=O)[C@H](C)C[C@H](C)/C=C/C=C/C=C/1C [everolimus] + O=C(Oc1ccc([N+](=O)[O-])cc1)N1CCC(C(O)(c2ccc3c(c2)OCO3)c2ccc3c(c2)OCO3)CC1 [JZL184] (first compound 0.02 µM, partner dose 1 µM) | – | 80.5 | 85.6 | 76.1 | 54.5 | 65.3 | 86.4 | 67.3 | 59.7 | 79.7 | 79.2 | 82.3 | 49.8 | 61.4 | 91.2 |
| COc1cc2ncnc(Nc3ccc(Oc4ccccc4)cc3)c2cc1OC + C/C(O)=C(\C#N)C(=O)Nc1cc(Br)ccc1Br [LFM-A13] (first compound 2 µM, partner dose 2 µM) | 91.5 | 97 | 97.2 | 123 | 87.9 | 118 | 94.1 | 98.5 | 103 | 113 | 105 | 89.3 | 114 | 90.6 | 124 |
| Cn1c(Nc2ccc(C(F)(F)F)cc2)nc2cc(Oc3ccnc(-c4ncc(C(F)(F)F)[nH]4)c3)ccc21 + Cc1cc(SCc2sc(-c3ccc(C(F)(F)F)c(F)c3)nc2C)ccc1OCC(=O)O [GW0742] (first compound 0.08 µM, partner dose 2 µM) | 67.7 | 44.2 | 55.4 | 59.6 | 67.8 | 58 | 149 | 37 | 55.7 | 47.4 | 71.8 | 67.1 | 40.2 | 77.1 | 114 |
| Cc1nc(Nc2ncc(C(=O)Nc3c(C)cccc3Cl)s2)cc(N2CCN(CCO)CC2)n1 [dasatanib] + C/C(O)=C(\C#N)C(=O)Nc1cc(Br)ccc1Br [LFM-A13] (first compound 0.004 µM, partner dose 2 µM) | 77 | 89.5 | 68.7 | 90.6 | 73.7 | 87.3 | 88.2 | 83.9 | 80.9 | 65 | 87.7 | 60 | 103 | 98.4 | 87 |
| C=CCn1c(=O)c2cnc(Nc3ccc(N4CCN(C)CC4)cc3)nc2n1-c1cccc(C(C)(C)O)n1 + O=C(Oc1ccc([N+](=O)[O-])cc1)N1CCC(C(O)(c2ccc3c(c2)OCO3)c2ccc3c(c2)OCO3)CC1 [JZL184] (first compound 0.02 µM, partner dose 1 µM) | 96.2 | 106 | 76.7 | 88.7 | 89.9 | 89.2 | 70.2 | 88.7 | 68.6 | 89.5 | 44.8 | 79.2 | 80.4 | 42.7 | 113 |
| O=C(O)C(=O)Nc1sc2c(c1C(=O)O)CCNC2 + C/C(O)=C(\C#N)C(=O)Nc1cc(Br)ccc1Br [LFM-A13] (first compound 1.66667 µM, partner dose 2 µM) | – | 98.2 | 94 | 108 | 88.4 | 113 | 101 | 86.5 | 94.3 | 102 | 110 | 66.4 | 118 | 92.8 | 90.7 |
| C#Cc1cccc(Nc2ncnc3cc(OCCOC)c(OCCOC)cc23)c1 [erlotinib] + Cc1cc(SCc2sc(-c3ccc(C(F)(F)F)c(F)c3)nc2C)ccc1OCC(=O)O [GW0742] (first compound 0.8 µM, partner dose 2 µM) | – | 97.9 | 94.5 | 81.1 | 86.1 | 105 | 98.3 | 107 | 96.5 | 90.1 | 84.8 | 76.8 | 105 | 82.7 | 114 |
| Nc1ccn([C@@H]2O[C@H](CO)[C@@H](O)C2(F)F)c(=O)n1 [gemcitabine] + Cc1cc(SCc2sc(-c3ccc(C(F)(F)F)c(F)c3)nc2C)ccc1OCC(=O)O [GW0742] (first compound 0.0004 µM, partner dose 2 µM) | – | 82.7 | 82.5 | 81 | 93.6 | 98.6 | 90.8 | 102 | 91.1 | 91.8 | 95.8 | 69.8 | 96.4 | 59.8 | 98.6 |
| COc1ccc(COc2ccc(Cc3cnc(N)nc3N)cc2OC)cc1 + O=C(Oc1ccc([N+](=O)[O-])cc1)N1CCC(C(O)(c2ccc3c(c2)OCO3)c2ccc3c(c2)OCO3)CC1 [JZL184] (first compound 1 µM, partner dose 1 µM) | – | 102 | 102 | 106 | 85.3 | 104 | 89.4 | 73.8 | 80.7 | 111 | 92.8 | 104 | 92.8 | 126 | 97.5 |

Source: the supplement of paper PMC4604168 (melanoma cell lines)
